Our source for the activation values is PubChem BioAssay AID1346428 (National Center for Advancing Translational Sciences (NCATS), 2018).

In all, about 48,000 compounds went through this assay and about 1,200 (2.5%) were called active. Another 2% or so got no clear call; they are omitted.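 How the source made its calls: active means activation of at least 60% and not above a set upper limit (about 1 call in 100 departs from these limits); inconclusive means activation of 40% to 60%, or above that upper limit; inactive means activation under 40%.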 This is one part of the list. Where a SMILES comes first, the peptide text is derived from it.

For this experiment, the target named is Probable G-protein coupled receptor 32 (Homo sapiens) (UniProt O75388). As to the kind of experiment: qHTS for Agonists of Human Resolvin D1 Receptor DRV1. Further: 0% is about no effect. The settings on record: CHO-K1 GPR32 beta-arrestin PathHunter luminescence, 90 min; at 76.9 µM; stronger effect = higher value; zero percent set by DMSO-only wells. An outline of the steps: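 Agonism was scored as beta-arrestin recruitment to ProLink-fused GPR32 in stably transfected CHO-K1 cells, giving a chemiluminescent beta-Gal signal; compounds were incubated 90 min at 37 °C.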
Chain of UniProt O75388 (O75388 whole entry, looked up, the tested form may be a part): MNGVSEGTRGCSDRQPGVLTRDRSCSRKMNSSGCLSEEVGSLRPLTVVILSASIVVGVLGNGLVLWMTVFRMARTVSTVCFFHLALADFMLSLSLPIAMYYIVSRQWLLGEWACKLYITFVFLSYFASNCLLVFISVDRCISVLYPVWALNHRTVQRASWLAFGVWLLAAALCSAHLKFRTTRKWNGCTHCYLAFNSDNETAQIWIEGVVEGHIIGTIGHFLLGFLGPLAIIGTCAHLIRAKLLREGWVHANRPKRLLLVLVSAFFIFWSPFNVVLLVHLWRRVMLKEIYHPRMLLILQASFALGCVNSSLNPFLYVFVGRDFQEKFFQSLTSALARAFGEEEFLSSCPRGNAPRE
(In general: In qHTS, concentration-response curves come from the screen itself.)
Regarding `Cc1ccc(NC(=O)N2CCN(Cc3nc4ccc(C)cc4o3)CC2)c(Cl)c1`, the activation is inactive: 3.49%.

On to `CC(=O)C1=C(c2ccc(Cl)c(Cl)c2)N(C(C)=O)n2cnnc2S1`, for which the activation is inactive: 2.38%.

`O=C1CN(C(=O)COc2ccc(Cl)cc2)C(c2ccc(F)cc2)c2cc(Br)ccc2N1` (stereo not drawn): the activation was inactive: -26.8%.

For the compound `COC(=O)c1c(SCC(=O)Nc2cccc(Cl)c2C)[nH]c2ccccc2c1=O`, the activation was inactive: -16.7%.

As for `CN(C(=O)c1c2c(nc3ccccc13)C(=O)N(C1CCCCC1)C2)c1ccc(F)cc1`, the activation is inactive: -10.4%.

As for `Cc1ccc(S(=O)(=O)NCCc2csc3nc(-c4ccccc4F)nn23)cc1C`, the activation was active: 105%.

In the case of `Cc1ccc(C)c(N2CCN(c3nc4ccc(Cl)cc4n4cnnc34)CC2)c1`, the activation was inactive: -5.84%.

Consider `CCOC(=O)c1c(C)oc2ncnc(N3CCN(c4ccccc4)CC3)c12`, for which the activation was inactive: -32.5%.

As to `CC(NC(=O)C1CCN(S(=O)(=O)c2ccc3c(c2)oc(=O)n3C)CC1)c1ccccc1` (stereo not drawn), the activation is inactive: -0.365%.

On to `O=[N+]([O-])c1ccc(S(=O)(=O)N2CCn3cccc3C2c2ccccc2F)cc1` (stereo not drawn), for which the activation is inactive: 6.22%.

In the case of `CC(C)(C)OC(=O)N1CCC(c2c(C(=O)N3CCC(c4ccccc4)C3)cnn2-c2ccc(Cl)cc2)CC1` (stereo not drawn), the activation is inactive: -11.7%.

As to `COc1cccc(-c2nc(SCc3ccc(C)cc3)n3[nH]c(=O)cc3n2)c1`, the activation is inactive: -7.98%.

Take `COc1ccccc1-c1nc(S(=O)(=O)c2ccccc2)c(N2CCC(C)CC2)o1`: the activation was inactive: 4.09%.

Turning to `Cc1ccccc1OCc1nnc(SCc2cc(=O)c3ccc(C)c(C)c3[nH]2)n1C`, the activation was inactive: 33.3%.

Consider `Cc1ccc(-c2cc3c(n2-c2ccc(F)cc2)CC(C)(C)CC3=O)cc1`, for which the activation is inactive: -11%.

With `Cc1cccc(NC(=O)CSc2nc3ccccc3c3nc(CCc4c(C)n[nH]c4C)nn23)c1`, the activation is inactive: 11.2%.

As for `COc1ccccc1CCNC(=O)C(=O)NCC(c1ccco1)S(=O)(=O)c1ccccc1` (stereo not drawn), the activation is inactive: -15.2%.

Consider `COc1ccc(Nc2nc3ccccc3nc2NS(=O)(=O)c2ccc(Cl)cc2)cc1OC`, for which the activation was active: 118%.

With `CC(C)c1cnc2c(c1SCC(=O)O)c(=O)n(C)c(=O)n2C`, the activation was inactive: 5.68%.

As for `NS(=O)(=O)c1cc(C(=O)NN2C[C@H]3[C@H]4CCC(C4)[C@H]3C2)ccc1Cl`, the activation is inactive: 2.52%.

Turning to `COc1ccccc1-c1cc(C(=O)NCCc2ccccc2)no1`, the activation is inactive: -10.6%.

As for `CC(=O)Nc1ccc(NC(=O)c2cnn(-c3ccccc3)c2C2CCN(C(=O)OC(C)(C)C)CC2)cc1`, the activation was inactive: 2.15%.

Consider `O=S(=O)(Nc1cccc(F)c1)c1ccc2[nH]c3c(c2c1)CCCCC3`, for which the activation is active: 61.6%.

For `CCC(C(=O)NCc1cccc(Br)c1)n1nc(C)c2c(C)n(-c3ccccc3)nc2c1=O` (stereo not drawn), the activation was inactive: -9.81%.

As to `COc1ccc2c(c1)c1c(c(=O)n(-c3cccc(C)c3)c(=O)n1CC(=O)N1CCCC1)n2C`, the activation was inactive: -1.72%.

For `Cc1cc(C)c2c(=O)cc(C(=O)Nc3ccc(S(=O)(=O)Nc4onc(C)c4C)cc3)oc2c1`, the activation is inactive: -10.2%.

As to `CC(C)(C)OC(=O)N1CCC(c2c(C(=O)NCc3ccccn3)cnn2-c2ccc(F)cc2)CC1`, the activation was inactive: 2.66%.

Take `Cc1ccc2c(=O)cc(C(=O)Nc3c(C(=O)c4ccccc4)oc4ccccc34)oc2c1C`: the activation was inactive: 11.1%.

In the case of `COC(=O)[C@H](Cc1ccccc1)NC(=O)[C@@H](N)CC(=O)O` (H-Asp-Phe-OMe), the activation was inactive: 23.1%.

As to `CCC(C)NC(=O)c1ccc2c(c1)N=C(C)c1cc(C)ccc1S2` (stereo not drawn), the activation is inactive: -1.56%.

In the case of `COc1ccc(-c2cc(-c3ccccc3)nc3c2COc2ccccc2-3)cc1`, the activation is inactive: -3.57%.

As to `CCCn1cc(S(=O)(=O)c2cc(C)ccc2C)c(=O)c2cc(F)c(N3CCCCCC3)cc21`, the activation is inactive: -31.4%.

For the compound `CC(C)CC(=O)Nc1nnc2n1CCS2`, the activation is inactive: 23.4%.

For `CCN1C(=O)c2ccccc2Sc2ccc(NC(=O)Cc3ccc(OC)cc3)cc21`, the activation was inactive: -27.2%.

Regarding `CCc1ccccc1N(c1nc(-c2ccc(OC)c(OC)c2)no1)c1nc(-c2ccc(OC)c(OC)c2)no1`, the activation is inactive: -2.58%.

In the case of `COc1cccc(NC(=O)C(=O)NCCc2csc3nc(-c4ccccc4C)nn23)c1`, the activation was inactive: 1.17%.

Turning to `COc1ccc(-n2nnc(C(=O)Nc3ccccc3F)c2N)cc1`, the activation is inactive: 12.4%.

With `CC(=O)NCc1nc2cccnc2n1Cc1ccccc1`, the activation is inactive: -9.77%.

Regarding `CC(=O)c1cc(-c2ccccc2)n(CCC(=O)NCCc2ccccc2)c1C`, the activation is inactive: -18.5%.

Consider `COC(=O)c1c(NC(=O)c2nc(SC)ncc2Cl)sc2c1CCCC2`, for which the activation is inactive: 1.51%.

As for `Cc1oc(-c2cccc(Cl)c2)nc1CSc1nnc(C)n2c1cc1occc12`, the activation is inactive: -1.1%.

Consider `Cc1cccc(CCNC(=O)c2ccc3c(c2)nc2n3CCCCC2)c1`, for which the activation was inactive: -10.7%.

In the case of `Cc1nc2c(-c3ccc(F)cc3)c(C)nn2c(C)c1CCC(=O)N1CCN(c2ccc(F)cc2)CC1`, the activation is inactive: 4.07%.

With `COc1ccc(Cl)cc1N(C)C(=O)Cc1noc2ccc(C)cc12`, the activation is inactive: -12.5%.

With `CCc1cccc(C)c1NC(=O)Cn1c(=O)n(-c2cccc(C)c2)c(=O)c2c1c1cc(C)ccc1n2C`, the activation is inactive: -1.08%.

As for `COc1ccccc1N1CCN(C(=O)Cn2cnc3sc(C)c(S(=O)(=O)N4CCC(C)CC4)c3c2=O)CC1`, the activation was inactive: 2.56%.

As to `C/C(=C1\CCOC(=O)S1)N(C=O)Cc1cnc(C)nc1N`, the activation was inactive: 0.97%.

Regarding `Cc1cccc(Cc2c(C)nc3nc(SCC(=O)NCc4ccc(F)cc4)nn3c2C)c1`, the activation is inactive: -4.46%.

As to `COc1ccc(NC(=O)CCNS(=O)(=O)c2ccc3c(c2)CCN3C(=O)C2CC2)cc1Cl`, the activation is inactive: 4.09%.

In the case of `COc1ccc(-c2nnc(SCC(=O)Nc3cccc(Cl)c3C)nc2-c2ccc(OC)cc2)cc1`, the activation is inactive: -46.5%.

As to `Cc1cc(C)n(-c2nc(C)c(C)c(=O)n2CC(=O)Nc2ccc(Cl)c(Cl)c2)n1`, the activation is inactive: -10.4%.

On to `CC(=O)Nc1ccc(NC(=O)c2c(C)nn(-c3ccccc3)c2-n2cccc2)cc1`, for which the activation is inactive: 4.99%.

With `Cc1ccc(CNc2ncnc3c2cnn3-c2ccc(C)cc2C)cc1`, the activation was active: 61.2%.
